Whole data set: some 18,000 sequences, median “TetR repression strength (sort-seq, GFP reporter)” near 0.23, cut for the highest 2% near 0.68. The list shows a part of the results.

This experiment has as its target TetR (class B, Tn10) (UniProt P04483). The experiment is described as follows: TetR repression strength (sort-seq, GFP reporter) (relative to tetO2 = 1); higher = stronger repression. The following applies: E. coli. A digest of the protocol: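 Three independent transformations of E. coli SIG10-MAX were made with a low-copy plasmid library randomizing eight operator positions between a constitutive promoter and sfGFP, with constitutive TetR. Following 5 h at 37 °C in LB plus 50 µg/mL chloramphenicol, 10^6 cells went through FACS into 13 fluorescence bins, and each bin was sequenced by Illumina. Repression strength was defined as the top bin index plus one minus the read-weighted mean bin, divided by the unaltered operator's value. Averages included only members reaching ≥30 reads in all replicates with a CV ≤0.5.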
Sequence of UniProt P04483 (P04483 whole entry): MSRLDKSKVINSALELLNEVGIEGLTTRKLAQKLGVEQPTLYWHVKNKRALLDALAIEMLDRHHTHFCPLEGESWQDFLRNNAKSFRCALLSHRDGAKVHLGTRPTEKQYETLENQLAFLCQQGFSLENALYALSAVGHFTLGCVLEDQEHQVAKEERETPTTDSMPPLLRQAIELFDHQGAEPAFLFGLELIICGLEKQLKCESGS
The sequence TCCCAACGAGTCATGGAGA displayed a TetR repression strength of 0.199.

The sequence TCCCGCCGAGTGCCCGAGA returned a TetR repression strength of 0.406.

TCCCTCAAAGTCCAGGAGA registered a TetR repression strength of 0.237.

Sequence TCCCTTTGAGTGATGGAGA displayed a TetR repression strength of 0.133.

With TCCCAACAAGTGTTCGAGA, the TetR repression strength turned out to be 0.0254.

In the case of TCCCCCGGAGTGCGGGAGA, the TetR repression strength came out at 0.0954.

With TCCCTGCAAGTCCGAGAGA, the TetR repression strength was 0.104.

Sequence TCCCCGCGAGTGACAGAGA returned a TetR repression strength of 0.569.

The sequence TCCCGAGGAGTGGGTGAGA had a TetR repression strength of 0.351.

Sequence TCCCGGGGAGTTCCGGAGA yielded a TetR repression strength of 0.18.

Regarding TCCCGTACAGTCATCGAGA, the TetR repression strength is 0.0915.

TCCCCCTAAGTGGGCGAGA gave a TetR repression strength of 0.265.

In turn, TCCCGTCGAGTACCCGAGA returned a TetR repression strength of 0.0284.

TCCCGGTTAGTATAGGAGA came in with a TetR repression strength of 0.141.

Sequence TCCCTGCCAGTTCCAGAGA showed a TetR repression strength of 0.368.

For TCCCGAAGAGTTGTTGAGA, the TetR repression strength was determined as 0.233.

For TCCCGTCAAGTAATCGAGA, the TetR repression strength came out at 0.0648.

Take TCCCCGTGAGTGAAGGAGA: the TetR repression strength came to 0.297.

In turn, TCCCCAGGAGTTCGGGAGA came in with a TetR repression strength of 0.0537.

For TCCCGATAAGTACTGGAGA, the TetR repression strength stood at 0.13.

In turn, TCCCGAAGAGTTATGGAGA came in with a TetR repression strength of 0.272.

For TCCCACGAAGTGAGGGAGA, the TetR repression strength was determined as 0.157.

The sequence TCCCTGCTAGTTGAGGAGA came in with a TetR repression strength of 0.3.

Sequence TCCCAAATAGTGCGTGAGA yielded a TetR repression strength of 0.258.

In turn, TCCCTAAAAGTGGCAGAGA registered a TetR repression strength of 0.0494.

Sequence TCCCCCTAAGTGCAAGAGA returned a TetR repression strength of 0.426.

Take TCCCTACAAGTGGTAGAGA: the TetR repression strength stood at 0.432.

Consider TCCCTATTAGTTTAGGAGA, for which the TetR repression strength is 0.276.

Turning to TCCCCTAGAGTCTCAGAGA, the TetR repression strength was 0.0331.

The sequence TCCCTTCAAGTCATTGAGA returned a TetR repression strength of 0.0199.

In turn, TCCCGTAAAGTAGTGGAGA yielded a TetR repression strength of 0.086.

Sequence TCCCGCCTAGTGGATGAGA had a TetR repression strength of 0.194.

TCCCGTGTAGTCTGTGAGA yielded a TetR repression strength of 0.111.

The sequence TCCCTAGAAGTAAAAGAGA yielded a TetR repression strength of 0.0805.

The sequence TCCCGTCTAGTGCATGAGA had a TetR repression strength of 0.359.

Consider TCCCAAGGAGTAGAAGAGA, for which the TetR repression strength is 0.327.

Sequence TCCCGTTGAGTAGACGAGA registered a TetR repression strength of 0.248.

For the sequence TCCCTGGGAGTCGGCGAGA, the TetR repression strength is 0.191.

For TCCCTACAAGTGCGTGAGA, the TetR repression strength was found to be 0.408.

As to TCCCTTCTAGTGATTGAGA, the TetR repression strength was 0.29.

In turn, TCCCCCCAAGTAGGGGAGA yielded a TetR repression strength of 0.172.

Regarding TCCCGGTGAGTTACGGAGA, the TetR repression strength turned out to be 0.499.

Sequence TCCCGGGTAGTGATGGAGA had a TetR repression strength of 0.318.

As to TCCCTATCAGTCGCTGAGA, the TetR repression strength stood at 0.41.

TCCCTCGAAGTTGCAGAGA had a TetR repression strength of 0.153.

For TCCCATTGAGTGTTGGAGA, the TetR repression strength turned out to be 0.154.

On to TCCCAGCTAGTTTGAGAGA, for which the TetR repression strength amounted to 0.193.

For TCCCGTGTAGTGTGAGAGA, the TetR repression strength was 0.44.

Consider TCCCGCTAAGTTCCTGAGA, for which the TetR repression strength came out at 0.792.

TCCCACCAAGTCCCTGAGA gave a TetR repression strength of 0.386.

TCCCTGTGAGTTGCGGAGA: the TetR repression strength worked out at 0.389.

Sequence TCCCGTCGAGTGGGCGAGA registered a TetR repression strength of 0.129.

Consider TCCCTGCCAGTCTCGGAGA, for which the TetR repression strength was determined as 0.239.

As to TCCCGAATAGTAATGGAGA, the TetR repression strength came to 0.195.

Sequence TCCCCAGAAGTACCGGAGA came in with a TetR repression strength of 0.

The sequence TCCCCAGTAGTCAGGGAGA registered a TetR repression strength of 0.22.

In turn, TCCCAGCCAGTCGAAGAGA displayed a TetR repression strength of 0.383.

TCCCCGCTAGTATCCGAGA gave a TetR repression strength of 0.22.

Sequence TCCCATAAAGTTGTAGAGA gave a TetR repression strength of 0.168.

Consider TCCCTGCGAGTAGAGGAGA, for which the TetR repression strength was found to be 0.00727.

TCCCAATTAGTATAGGAGA displayed a TetR repression strength of 0.0798.

TCCCTTTTAGTGGCGGAGA returned a TetR repression strength of 0.206.

As for TCCCGGAGAGTTTGGGAGA, the TetR repression strength stood at 0.149.

The sequence TCCCTTGGAGTGGTAGAGA came in with a TetR repression strength of 0.172.

TCCCAGTCAGTGGGTGAGA had a TetR repression strength of 0.192.

TCCCTCGTAGTTTTTGAGA yielded a TetR repression strength of 0.352.

In turn, TCCCGAAGAGTGGCTGAGA came in with a TetR repression strength of 0.25.

On to TCCCCGCAAGTATAGGAGA, for which the TetR repression strength amounted to 0.195.

In turn, TCCCCATGAGTTTGGGAGA had a TetR repression strength of 0.183.

For the sequence TCCCGATAAGTGAGCGAGA, the TetR repression strength is 0.3.

On to TCCCTTCAAGTTCGGGAGA, for which the TetR repression strength worked out at 0.18.

Take TCCCATGCAGTCCAAGAGA: the TetR repression strength worked out at 0.286.

The sequence TCCCGGGTAGTCAAGGAGA had a TetR repression strength of 0.296.

For TCCCTGTTAGTGTTAGAGA, the TetR repression strength worked out at 0.344.

For TCCCAAGGAGTTGCCGAGA, the TetR repression strength came out at 0.213.

TCCCGCTGAGTCCCAGAGA showed a TetR repression strength of 0.193.

Take TCCCGCAAAGTTGGTGAGA: the TetR repression strength worked out at 0.359.

TCCCGGTTAGTAGGAGAGA displayed a TetR repression strength of 0.199.

TCCCGCTTAGTCCACGAGA: the TetR repression strength stood at 0.212.

On to TCCCGGCGAGTTAAGGAGA, for which the TetR repression strength was found to be 0.158.

The sequence TCCCGCGCAGTAAGTGAGA gave a TetR repression strength of 0.418.

Take TCCCCGGTAGTTTCTGAGA: the TetR repression strength came to 0.207.

Sequence TCCCTAAGAGTCCTCGAGA had a TetR repression strength of 0.353.

TCCCTAAGAGTCAATGAGA returned a TetR repression strength of 0.231.

The sequence TCCCTCATAGTCGAGGAGA yielded a TetR repression strength of 0.214.

Consider TCCCGCTGAGTAGGCGAGA, for which the TetR repression strength is 0.587.

For the sequence TCCCTTGTAGTAATCGAGA, the TetR repression strength came out at 0.397.

For TCCCGATGAGTGATAGAGA, the TetR repression strength turned out to be 0.615.

On to TCCCACGGAGTAAGGGAGA, for which the TetR repression strength came out at 0.292.

As for TCCCTTGCAGTGACCGAGA, the TetR repression strength is 0.315.

Sequence TCCCTCATAGTATGTGAGA registered a TetR repression strength of 0.257.

As for TCCCAGCAAGTAGGGGAGA, the TetR repression strength turned out to be 0.289.

Turning to TCCCTACCAGTGATCGAGA, the TetR repression strength was determined as 0.593.

Consider TCCCTTAGAGTGGCTGAGA, for which the TetR repression strength was 0.315.

Regarding TCCCGGTCAGTTCGGGAGA, the TetR repression strength was 0.317.

As for TCCCGCCAAGTGATAGAGA, the TetR repression strength is 0.343.

Sequence TCCCCTTTAGTGCGTGAGA gave a TetR repression strength of 0.

TCCCAATCAGTCGAAGAGA came in with a TetR repression strength of 0.334.

In the case of TCCCGGGGAGTCCCCGAGA, the TetR repression strength worked out at 0.165.

On to TCCCGAGGAGTGATCGAGA, for which the TetR repression strength was determined as 0.228.

In turn, TCCCTAGGAGTACTGGAGA yielded a TetR repression strength of 0.216.

TCCCTAAAAGTGCACGAGA yielded a TetR repression strength of 0.261.

For the origin of these results see a collection of fitness landscapes (doi:10.1038/s41467-024-54723-y).
